Experimental data from PubChem BioAssay AID360 (National Center for Advancing Translational Sciences (NCATS), 2006).
In all, about 48,000 compounds went through this assay and about 550 (1.1%) were called active. Inconclusive results (about 4%) are left out. Rule as the data show it: active = potency below about 15 µM; inconclusive = mostly about 16 µM to 33 µM; inactive = weaker than that. This is one part of the list.

molecular target: Lysosomal acid glucosylceramidase (Homo sapiens) (UniProt P04062); assay: Glucocerebrosidase; settings: purified enzyme, resorufin glucoside fluorescence (screen aimed at inhibitors), 20 min;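 also: the screen sought inhibitors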
Outline: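 Normal human glucocerebrosidase (0.2 nM final) was assayed with resorufin β-D-glucopyranoside (30 uM final) in 50mM citric acid/KH2PO4, 10mM sodium taurocholate, 0.01% tween-20, pH 5.9. Compounds were titrated; fluorescence (Ex 548, Em 600) read after 20 min at RT.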
Potency is read from the fitted curve at half-maximal effect.

Chain of UniProt P04062 (P04062 whole entry, looked up): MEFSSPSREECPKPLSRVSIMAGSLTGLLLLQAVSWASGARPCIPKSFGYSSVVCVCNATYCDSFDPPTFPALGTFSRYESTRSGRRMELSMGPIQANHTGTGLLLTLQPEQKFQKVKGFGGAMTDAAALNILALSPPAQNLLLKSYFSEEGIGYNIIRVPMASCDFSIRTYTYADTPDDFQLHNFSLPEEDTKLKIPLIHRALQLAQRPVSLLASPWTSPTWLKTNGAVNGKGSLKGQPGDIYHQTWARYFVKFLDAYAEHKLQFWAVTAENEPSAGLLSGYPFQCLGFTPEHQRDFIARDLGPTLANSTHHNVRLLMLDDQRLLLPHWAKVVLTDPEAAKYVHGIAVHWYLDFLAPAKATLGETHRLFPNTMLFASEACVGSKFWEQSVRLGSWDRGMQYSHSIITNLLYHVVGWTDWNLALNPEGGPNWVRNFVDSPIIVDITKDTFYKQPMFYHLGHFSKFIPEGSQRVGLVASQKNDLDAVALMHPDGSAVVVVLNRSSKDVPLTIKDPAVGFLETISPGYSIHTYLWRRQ

Potency, inactive:
CCCSc1nnc(-c2cccc(S(=O)(=O)N(C)C)c2)n1-c1cc(OC)ccc1OC
COc1c(F)c(F)c(C(=O)Nc2ccc3oc(-c4ccncc4)nc3c2)c(F)c1F > 76.9 µM
Cc1cc(C)n2cc(CSc3nc4cc(Cl)ccc4o3)nc2n1 > 76.9 µM
Cc1cc(C)c2[nH]c(=O)c(C(c3nnnn3C(C)(C)C)N3CCN(C(=O)c4ccco4)CC3)cc2c1 (stereo not given) > 76.9 µM
CCOC(=O)c1cnc(-n2nc(C)cc2C)nc1N1CC(C)OC(C)C1 (stereo not given) > 76.9 µM
O=C(COc1ccc(S(=O)(=O)N2CCOCC2)cc1)NC1CCCC1 > 76.9 µM
CCOC(=O)c1[nH]c(COC(=O)C2CC(=O)N(Cc3ccccc3)C2)c(C(=O)OCC)c1C (stereo not given) > 76.9 µM
COc1cccc(-c2csc(N3CCN(C(=O)Nc4ccccc4OC)CC3)n2)c1 > 76.9 µM
CC1CCN(C(=O)CSc2nnc(-c3cccnc3)n2C2CCCCC2)CC1 > 76.9 µM
COc1ccccc1C(=O)N1CCC(C(=O)c2ccc(F)cc2)CC1 > 76.9 µM
CCCn1nc(C(=O)Nc2cccc(C(=O)OC)c2)c2ccccc2c1=O > 76.9 µM
CCC(NS(=O)(=O)c1ccc(C)cc1)C(=O)Nc1ccc(NC(C)=O)cc1 (stereo not given) > 76.9 µM
COc1ccc(OC)c(NS(=O)(=O)c2ccc3c(c2)CCC(=O)N3)c1 > 76.9 µM
CCOC(=O)c1ccccc1NC(=O)Cn1cnc2c(cnn2-c2ccc(OC)cc2)c1=O > 76.9 µM
Cc1ccc(F)cc1NC(=O)c1ccc2c(c1)OCO2 > 76.9 µM
O=C(NCC1CCCO1)c1ccc(C(=O)NCC2CCCO2)cc1 (stereo not given) > 76.9 µM
COc1ccccc1NS(=O)(=O)c1ccc(Cl)cc1 > 76.9 µM
O=C(C1CCN(S(=O)(=O)c2cccc3nsnc23)CC1)N1CCc2ccccc21 > 76.9 µM
O=C(C1CC1)N1CCc2cc(S(=O)(=O)NCC3COc4ccccc4O3)ccc21 (stereo not given) > 76.9 µM
COc1ccccc1CN1C(=S)SC(C)(C)C1NO (stereo not given) > 76.9 µM
CCCOc1cccc(C2C(C(=O)c3ccco3)=C(O)C(=O)N2CCN(CC)CC)c1 (stereo not given) > 76.9 µM
CC(C)OC(=O)CSc1nnc(Cc2ccccc2)n1C > 76.9 µM
Cc1cc(C)nc(SCc2nnc(SCC(=O)Nc3ccccc3C)n2Cc2ccco2)n1 > 76.9 µM
O=c1cc(N2CCc3ccccc32)[nH]c(=O)n1Cc1ccc(F)cc1 > 76.9 µM
COC(=O)Nc1nnc(CC(=O)Nc2ccccc2C)s1 > 76.9 µM
O=C(CCCSc1nc2ccccc2s1)NCc1ccco1 > 76.9 µM
COC(=O)c1ccc2c(=O)n(CCCCCC(=O)N3CCN(c4ccccc4)CC3)c(=O)[nH]c2c1 > 76.9 µM
COC(=O)CCN(C1CCCCC1)S(=O)(=O)c1ccc(S(=O)(=O)N2CCCCC2)cc1 > 76.9 µM
CCOC(=O)N1CCN(C(=O)Nc2ccc3nc(C)sc3c2)CC1 > 76.9 µM
Clc1ccc(Cl)c2sc(N3CCOCC3)nc12 > 76.9 µM
O=C(NCCO)c1cc2ccccc2c(=O)s1
CC(Oc1ccccc1)C(=O)Nc1ccc(C(N)=O)cc1 (stereo not given) > 76.9 µM
C=CCn1c(SCC(=O)Nc2ccc(NC(=O)c3ccco3)c(OC)c2)nnc1-c1ccncc1 > 76.9 µM
Cc1ccc(-n2nnnc2SCC(=O)c2cc(C)n(-c3cc(C)on3)c2C)cc1 > 76.9 µM
Cc1cc(C)n(-c2nc3c(c(=O)[nH]c(=O)n3C)n2CC(O)c2ccccc2)n1 (stereo not given) > 76.9 µM
CCOC(=O)N1CCC(NC(=O)CCC(=O)c2ccccc2)CC1 > 76.9 µM
COc1cc2nc(COc3ccc(C#N)cc3)n(CC#N)c(=O)c2cc1OC > 76.9 µM
COc1ccc(C2=NOC(C(=O)N3CCCc4ccccc43)C2)cc1 (stereo not given) > 76.9 µM
CC(=O)c1ncnn1CC(=O)c1ccc(Cl)cc1Cl > 76.9 µM
COc1cccc(C(=O)OCn2nnc3ccccc3c2=O)c1 > 76.9 µM
CCCCNC(=O)C(C#N)c1nc2ccccc2nc1N1CCCC1 (stereo not given) > 76.9 µM
CS(=O)(=O)c1ccc2nc(NC(=O)CCC(=O)c3cccs3)sc2c1 > 76.9 µM
COc1ccccc1-n1cnnc1SCC(=O)c1ccc[nH]1 > 76.9 µM
C=CCC1(O)C(=O)Nc2ccccc21 (stereo not given) > 76.9 µM
COc1ccc2c(c1)CCc1c-2n[nH]c1C(=O)O > 76.9 µM
COC(=O)c1cccc(COC(=O)CNC(=O)c2ccco2)c1 > 76.9 µM
CCOC(=O)c1cc(-c2nnc(-c3cc(OC)c(OC)c(OC)c3)o2)c(C)nc1C > 76.9 µM
CC(C)OCC(O)CN1CCN(CC(O)COc2ccc3c(c2)OCO3)CC1 (stereo not given) > 76.9 µM
COc1ccc(NS(=O)(=O)c2ccc(O)c(C(=O)OCC(=O)N3CC(C)OC(C)C3)c2)cc1 (stereo not given) > 76.9 µM
COc1ccccc1-c1noc(CCC(=O)Nc2cc(C(F)(F)F)ccc2Cl)n1 > 76.9 µM
O=C1COc2ccc(C(=O)CSc3nnnn3-c3ccccc3)cc2N1
CCOCC(=O)Nc1c(C(=O)OCC)oc2ccccc12 > 76.9 µM
COc1cc(NC(=O)NCc2ccncc2)cc(OC)c1OC > 76.9 µM
COc1cc(NC(=O)NCCN2CCN(c3ccc(Cl)cc3)CC2)ccc1C > 76.9 µM
COc1cc2c(C(=O)NCCCN3CC(C)CC(C)C3)cn(CC(C)C)c(=O)c2cc1OC (stereo not given) > 76.9 µM
COc1ccc(CCNC(=O)Cn2c(=O)cnc3ccccc32)cc1 > 76.9 µM
O=C1c2oc3ccccc3c(=O)c2C(c2ccc(Br)cc2)N1c1ncccn1 (stereo not given) > 76.9 µM
O=C(CSc1nnc(-c2ccccc2)o1)c1nnc(-c2ccccc2)o1 > 76.9 µM
COc1ccc(S(=O)(=O)N2CCCN(CC(=O)C(C)(C)C)CC2)cc1 > 76.9 µM
OC(COc1ccc2c(c1)CCC2)Cn1cnc2ccccc21 (stereo not given)
Cc1nc2ccc(-n3ccc(=O)cc3)cc2s1 > 76.9 µM
CCOCCCNS(=O)(=O)c1ccc2c(c1)oc(=O)n2CC(=O)OCC > 76.9 µM
COC(=O)c1ccc2c(c1)NC1=C(C(=O)CC(C)(C)C1)C(c1ccncc1)N2 (stereo not given) > 76.9 µM
c1ccc(-c2cc(CSc3nc4ccccc4[nH]3)on2)cc1 > 76.9 µM
Cc1cc(C)c2c(N)c(S(=O)(=O)c3ccccc3)sc2n1 > 76.9 µM
COc1ccc(S(=O)(=O)NCc2csc(C)n2)cc1 > 76.9 µM
O=C(CNCC1CCCO1)Nc1ccccc1N1CCOCC1 (stereo not given) > 76.9 µM
O=C1C2C3C=CC(C3)C2C(=O)N1c1nccs1 (stereo not given) > 76.9 µM
CCN(CC)c1ccc(NC(=O)CN2CCN(CC(=O)Nc3ccccc3F)CC2)cc1 > 76.9 µM
Cc1sc2ncnc(SC(C)C#N)c2c1C (stereo not given) > 76.9 µM
O=C(c1ccccc1Cl)N1CCc2ccccc2C1 > 76.9 µM
CCc1nnc(NC(=O)c2ccc(COc3ccc(C)cc3)o2)s1 > 76.9 µM
O=C(CSc1nnc(Cn2c(=O)sc3ccccc32)n1CCc1ccccc1)N1CCOCC1 > 76.9 µM
O=C(NCc1ccc2c(c1)OCO2)c1ccncc1 > 76.9 µM
CC(C)(C)NC(=O)NC(=O)COC(=O)c1ccco1 > 76.9 µM
COc1ccc(C(=O)CSc2nnc(CNC(=O)c3ccc(OC)cc3)n2C)cc1 > 76.9 µM
COc1cc2nc(C3CCC3)n(NC(=O)C3CCCC(OC)C3)c(=O)c2cc1OC (stereo not given) > 76.9 µM
CCCS(=O)(=O)N1CCC(C(=O)NCCc2ccc(C)cc2)CC1 > 76.9 µM
CNS(=O)(=O)c1ccc(NC(=O)C(CCSC)NC(N)=O)cc1 (stereo not given) > 76.9 µM
O=C(Cn1nnc(-c2ccc(S(=O)(=O)N3CCCC3)cc2)n1)NCC1CCCO1 (stereo not given) > 76.9 µM
CCC1(CC)C(=O)N(C)C(=O)NC1=Nc1ccccc1 > 76.9 µM
O=C(CNC(=O)c1ccco1)OCC(=O)c1ccc2c(c1)CCCC2 > 76.9 µM
Cc1cc(=O)[nH]c(SCC2(O)C3CC4CC(C3)CC2C4)n1 (stereo not given) > 76.9 µM
O=C1CC(N2CCN(Cc3ccc4c(c3)OCO4)CC2)C(=O)N1c1ccccc1 (stereo not given) > 76.9 µM
CCCn1c(SCC(=O)NCc2cccs2)nc2c1c(=O)n(C)c(=O)n2C > 76.9 µM
Nc1nnc(SCC(=O)N2CCN(c3ccccc3)CC2)s1 > 76.9 µM
O=C(Nc1ccc(S(=O)(=O)N2CCOCC2)cc1)c1cccs1 > 76.9 µM
Cc1nn(-c2cccc(C(=O)O)c2)c(C)c1Oc1ccccc1O > 76.9 µM
CCn1c(N2CCN(CC(=O)c3ccc(OC)cc3)CC2)nc2ccccc21 > 76.9 µM
COC(=O)C(C)NC(=O)C12CC3CC(CC(C3)C1)C2 (stereo not given) > 76.9 µM
